Measured values: PubChem BioAssay AID504832 (National Center for Advancing Translational Sciences (NCATS), 2011)
Screen size: about 310,000 compounds; about 18,000 (5.8%) were called active. Inconclusive means that the source gave no clear call. Such entries were picked first, then a sample of the others. Calls come from the whole dose curve; as a rule, active = well fitted inhibition curve with a large enough effect; inconclusive = small, poorly fitted or top-dose-only effect, or another doubt; inactive = no such curve, though single readings can be large or run the other way. Potencies of inconclusive entries are left out as doubtful fits.

Assay: Primary qHTS for delayed death inhibitors of the malarial parasite plastid, 48 hour incubation
Conditions: P. falciparum luciferase growth in erythrocytes; series mostly up to 28.7 µM; activity change, negative = inhibition: at the top concentration
Procedure, shortened: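 Here the parasites carry a stable luciferase gene and grow inside erythrocytes in Albumax-based RPMI medium with compound for one erythrocytic cycle. Activity is scored as loss of luminescent signal.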
% is set by controls: 0 for no effect and ±100 for the full control effect; potency is the fitted concentration of half-maximal effect; tags give direction and shape of the fitted curve.

For `COCCn1nnnc1C(c1ccccn1)N1CCN(c2cccc(C)c2C)CC1` (stereo not drawn), which Potency is on record?
Its Potency is inconclusive [inhibitor, single point].

With `Cc1ccc(S(=O)(=O)NC(CCc2ccccc2)CC(=O)C(C)(C)C)cc1` (stereo not drawn) as the compound, how does the Potency read?
Its Potency is inconclusive [inhibitor, single point].

Which Potency does the source give for `Clc1ccc(-c2csc(NNC3=NCCCCC3)n2)cc1` here?
Its Potency is inconclusive [inhibitor, partial curve].

For `CC(=O)Nc1ccc(S(=O)(=O)N2CCN(S(=O)(=O)c3cccs3)CC2)cc1`, which “activity change, negative = inhibition” value is on record?
The value was inactive: -11.5%.

With `O=C1C=C(c2cccs2)CC(c2cccs2)C1n1cnc([N+](=O)[O-])c1` (stereo not drawn) as the compound, how does the Potency read?
The Potency was inconclusive [inhibitor, partial curve].

For `CC(C)CCNC(=O)C(c1cccs1)N(CC1CCCO1)C(=O)Cn1nnc2ccccc21` (stereo not drawn), which Potency is on record?
Its Potency is inconclusive [inhibitor, single point].

With `Cc1c(Cl)cccc1-n1c(SCC(=O)NCc2ccccc2Cl)nnc1-c1ccncc1` as the compound, how does the Potency read?
Its Potency is active: 8.28 µM.

With `Cn1c(SCc2nnc(-c3ccc(F)cc3)o2)nnc1C1COc2ccccc2O1` (stereo not drawn) as the compound, how does the Potency read?
Its Potency is inconclusive [inhibitor, single point].

Which Potency does the source give for `COc1ccc([N+](=O)[O-])cc1NC(=O)CCN1CCN(c2ccccc2OC)CC1` here?
Its Potency is inconclusive [inhibitor, partial curve].

With `O=C(N=Nc1c(O)[nH]c2ccccc12)c1ccc(CN2CCOCC2)cc1` as the compound, how does the “activity change, negative = inhibition” value read?
Its value is inactive: -1.13%.

For `O=C(Nc1nc2nccc(-c3ccccc3)n2n1)c1ccc(F)cc1`, which “activity change, negative = inhibition” value is on record?
Its value is inactive: 23.4%.

With `O=C(CSc1nnc(NC(=O)C2CC(=O)N(c3ccc(F)cc3)C2)s1)NC1CCCC1` (stereo not drawn) as the compound, how does the “activity change, negative = inhibition” value read?
The value was inactive: -3.56%.

With `O=C(Cn1nc2n(c1=O)-c1ccccc1SC2)N/N=C/c1cccs1` as the compound, how does the “activity change, negative = inhibition” value read?
Its value is inactive: -8.38%.

Which “activity change, negative = inhibition” value does the source give for `CCCn1c(SCC(=O)Nc2ccc3c(c2)OCO3)nc2c1c(=O)n(C)c(=O)n2C` here?
The value was inactive: 0.821%.

Which Potency does the source give for `Nc1nc2ccccc2n1CCOc1ccc(Br)cc1` here?
Its Potency is inconclusive [inhibitor, partial curve, poor fit].

With `COc1ccccc1-c1nnc(C2CCN(S(=O)(=O)c3ccc([N+](=O)[O-])cc3)CC2)o1` as the compound, how does the Potency read?
The Potency was inconclusive [inhibitor, partial curve].

For `CCN1C(=O)/C(=C2/Sc3ccc(OC)cc3N2C)SC1=Nc1cccc(O)c1`, which Potency is on record?
Its Potency is inconclusive [inhibitor, partial curve].

Which Potency does the source give for `O=S(=O)(c1ccc(F)cc1)N1CCCC1` here?
The Potency was inconclusive [inhibitor, full curve, poor fit].

With `CN(C)[C@@H](CO)c1nnc([C@H](Cc2ccc(O)cc2)NC(=O)C2CCNCC2)o1` as the compound, how does the Potency read?
The Potency was inconclusive [inhibitor, full curve, poor fit].

With `CCC(C)(C)NC(=O)C(c1ccccc1Cl)N(C(=O)CCC(=O)Nc1cc(C)on1)C(C)(C)C` (stereo not drawn) as the compound, how does the Potency read?
Its Potency is inconclusive [inhibitor, partial curve].

For `O=C(Cc1cccc2ccccc12)N1CCCc2ccccc21`, which “activity change, negative = inhibition” value is on record?
Its value is inactive: 49.5%.

With `CC(C)CNC(=O)COC(=O)c1ccc2c(c1)C(=O)N(Cc1ccco1)C2=O` as the compound, how does the “activity change, negative = inhibition” value read?
The value was inactive: 18.8%.

For `Brc1ccc(-c2c[n+]3c(n2-c2ccccc2)SCC3)cc1`, which Potency is on record?
The Potency was inconclusive [inhibitor, full curve].

Which Potency does the source give for `CS(=O)(=O)C1=NN2C(=N)/C(=C\c3ccc(OCCOc4ccccc4)cc3)C(=O)N=C2S1` here?
The Potency was inconclusive [inhibitor, partial curve, poor fit].

Which Potency does the source give for `CN(C)CC/C=C1\c2ccccc2CSc2ccccc21` here?
Its Potency is active: 10.4 µM.

Which Potency does the source give for `COc1ccc(CN2CCn3nc(C(=O)NC4CC4)cc3C2=O)cc1` here?
Its Potency is inconclusive [inhibitor, partial curve].

For `COCCN(CC1CCCN(C2Cc3ccccc3C2)C1)C(=O)CCC(N)=O` (stereo not drawn), which Potency is on record?
Its Potency is inconclusive [inhibitor, single point].

Which “activity change, negative = inhibition” value does the source give for `CCOc1ccc(/C=N/NC(=O)c2[nH]c3ccc(C)cc3c2C)cc1` here?
Its value is inactive: 16.5%.

Which Potency does the source give for `O=C(/C=C/c1ccccn1)c1ccc(Br)cc1O` here?
The Potency was inconclusive [inhibitor, single point].

For `CCN(CC)S(=O)(=O)c1cccc(-c2cn3cccnc3n2)c1`, which Potency is on record?
The Potency was active: 4.15 µM.

With `CC1CCCCC12NC(=O)N(CC(=O)Nc1ccc(S(=O)(=O)N3CCOCC3)cc1)C2=O` (stereo not drawn) as the compound, how does the “activity change, negative = inhibition” value read?
Its value is inactive: 5.89%.

With `COc1ccc(Br)cc1CNC(=O)CN1C(=O)C(c2ccccc2)Oc2cccnc21` (stereo not drawn) as the compound, how does the Potency read?
Its Potency is inconclusive [inhibitor, partial curve, poor fit].

With `Cc1nc(Cc2nnc(SCc3nc(N)nc(Nc4ccccc4C)n3)o2)cs1` as the compound, how does the Potency read?
The Potency was inconclusive [inhibitor, single point].

With `C#CCOCCOCCOCCNc1nc(N2CCN(C(=O)[C@H](Cc3cc4ccccc4[nH]3)n3cc([C@@H](N)CC(C)C)nn3)CC2)nc(N2CCN(C(=O)[C@H](Cc3cc4ccccc4[nH]3)n3cc([C@@H](N)CC(C)C)nn3)CC2)n1` as the compound, how does the Potency read?
Its Potency is active: 2.62 µM.

For `COc1ccc(NC(=O)C2CCCN(S(=O)(=O)c3ccc4c(c3)CCCN4C(C)=O)C2)cc1Cl` (stereo not drawn), which Potency is on record?
Its Potency is inconclusive [inhibitor, partial curve].

With `CC(/C=C/c1ccc2c(c1)OCO2)=N/NC(=O)C1COc2ccccc2O1` (stereo not drawn) as the compound, how does the Potency read?
Its Potency is inconclusive [inhibitor, single point].

With `Cc1c(Nc2c3ccccc3nc3ccccc23)c(=O)n(-c2ccccc2)n1C` as the compound, how does the Potency read?
Its Potency is inconclusive [inhibitor, single point].

Which Potency does the source give for `COc1ccc(CNC(=O)c2[nH]c(C)c(C(C)=O)c2C)cc1` here?
Its Potency is active: 14.7 µM.

With `O=C(Nc1nonc1NC(=O)C1CCCCC1)C1CCCCC1` as the compound, how does the Potency read?
The Potency was inconclusive [inhibitor, single point].

For `CCOc1ccc(C(=O)NCc2ccco2)cc1OCC`, which “activity change, negative = inhibition” value is on record?
Its value is inactive: 0%.

With `Cc1ccc(-c2ncns2)cc1` as the compound, how does the Potency read?
Its Potency is inconclusive [inhibitor, single point].

Which Potency does the source give for `Cc1ccc2c(c1)S/C(=C/c1ccc[n+](CCO)c1)N2C` here?
The Potency was inconclusive [inhibitor, full curve].

Which Potency does the source give for `CCCCn1c(O)c(C(C)=Nc2ccc(OCC)cc2)c(=O)[nH]c1=O` here?
Its Potency is inconclusive [inhibitor, single point].

With `O=C(Nc1ccc(OC(F)F)cc1)c1ncc(Cl)c(Cl)c1Cl` as the compound, how does the “activity change, negative = inhibition” value read?
The value was inactive: 2.31%.

For `CCCCNc1nc2ccccc2[nH]1`, which Potency is on record?
Its Potency is inconclusive [inhibitor, single point].

With `CCCCCC1(C)NC(=S)N(c2ccccc2)N1` (stereo not drawn) as the compound, how does the “activity change, negative = inhibition” value read?
The value was inactive: 34.4%.

For `COc1ccc(OCCSc2nnc(CCNC(=O)c3ccc(OC)cc3)n2C)cc1`, which Potency is on record?
Its Potency is inconclusive [inhibitor, partial curve, poor fit].

With `COc1ccccc1CNC(=O)C1CCCN(S(=O)(=O)c2cccc3cccnc23)C1` (stereo not drawn) as the compound, how does the Potency read?
The Potency was inconclusive [inhibitor, partial curve, poor fit].

For `Cc1ccc(NC(=O)/C(=C\C=C\c2ccccc2)NC(=O)c2ccccc2)cc1`, which Potency is on record?
The Potency was inconclusive [inhibitor, single point].

With `COC(=O)c1[nH]c2cc(OC)ccc2c1NC(=O)CCN1CCN(Cc2ccc3c(c2)OCO3)CC1` as the compound, how does the Potency read?
Its Potency is inconclusive [inhibitor, single point].

Which Potency does the source give for `O=C(/C=C/c1cccs1)NC(=S)NNC(=O)Cc1cccs1` here?
The Potency was inconclusive [inhibitor, single point].

With `COc1cccc(OC)c1C(=O)O/N=C(\N)c1ccncc1` as the compound, how does the Potency read?
Its Potency is inconclusive [inhibitor, single point].

Which “activity change, negative = inhibition” value does the source give for `COC(=O)C1=C(C)NC(=O)/C1=C\c1cc(C)n(-c2ccc(F)cc2)c1C` here?
The value was inactive: 7.82%.

Which Potency does the source give for `COc1cccc(C(=O)N(Cc2ccc3c(c2)OCO3)Cc2nc3ccccc3c(=O)[nH]2)c1` here?
The Potency was inconclusive [inhibitor, partial curve].

Which “activity change, negative = inhibition” value does the source give for `O=C(c1ncc[nH]1)c1ccccc1C(=O)N1CCOCC1` here?
The value was inactive: 12.7%.

With `CCc1nc(N2CCN(C(=S)NCCCOC)CC2)c2c3c(sc2n1)CCCC3` as the compound, how does the Potency read?
The Potency was inconclusive [inhibitor, partial curve, poor fit].

With `COc1ccc(NC(=O)Cc2c(C)n(C(=O)c3ccc(Cl)cc3)c3ccc(OC)cc23)cc1` as the compound, how does the Potency read?
Its Potency is inconclusive [inhibitor, partial curve, poor fit].

For `Cn1c(SCc2ccc(Br)cc2)nc2ccccc2c1=O`, which “activity change, negative = inhibition” value is on record?
The value was inactive: 0%.

For `CC(=O)c1cccc(NC(=O)c2cccc(S(=O)(=O)N3CCOCC3)c2)c1`, which “activity change, negative = inhibition” value is on record?
Its value is inactive: -24.1%.

With `CCOC(=O)c1cc(NC(=O)N(C)C2CCCCC2)c(C)nc1C` as the compound, how does the “activity change, negative = inhibition” value read?
Its value is inactive: 9.07%.

Which Potency does the source give for `CN(CC(=O)Nc1ccc(Cl)cc1)C(=O)Cn1[nH]c(=O)c2ccccc2c1=O` here?
The Potency was inconclusive [inhibitor, single point].

For `CN(CC(=O)Nc1ccc(Cl)c(C(F)(F)F)c1)C(=O)/C=C/c1ccco1`, which “activity change, negative = inhibition” value is on record?
Its value is inactive: -6.79%.

With `COc1ccc(CCNc2ccc(C(CC(N)=O)NC(=O)c3ccccc3)cc2[N+](=O)[O-])cc1` (stereo not drawn) as the compound, how does the Potency read?
The Potency was inconclusive [inhibitor, partial curve, poor fit].

Which Potency does the source give for `CCOC(=O)C1CCCc2c1[nH]c1ccc(Cl)cc21` (stereo not drawn) here?
The Potency was inconclusive [inhibitor, single point].

With `CCNc1ccc(C(=O)OCC(=O)N(Cc2ccccc2)C(C)(C)C)cc1[N+](=O)[O-]` as the compound, how does the “activity change, negative = inhibition” value read?
The value was inactive: 3.71%.

With `CC(C)Cn1c(N)c(C(=O)COC(=O)c2ccc(O)cc2)c(=O)n(C)c1=O` as the compound, how does the “activity change, negative = inhibition” value read?
The value was inactive: 13.3%.

For `CCOC(=O)c1c(C)oc2c1c1c(c3ccccc32)OCN(Cc2cccnc2)C1`, which Potency is on record?
The Potency was inconclusive [inhibitor, single point].

With `CCN1CCN(C(=O)/C(=C/c2ccco2)NC(=O)c2ccccc2)CC1` as the compound, how does the “activity change, negative = inhibition” value read?
The value was inactive: 15.5%.
